Some test systems named below: HCC-1143; HCC-1187; MDA-468; SUM-149.
Holding throughout (assay): cell viability relative to vehicle (% of vehicle); basal-like triple-negative breast cancer lines; higher = less cytotoxic
Common to all, as to settings: 10 µM; 72 h

Here are results for 17 compounds from the supplement of paper PMC8512760.

Structures can show the parent of a compound that is named as a salt. The list shows a part of the results. Repeats are few or missing, and single values can be far off.
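Note: stably firefly luciferase-GFP labeled cells in 96-well plates, viability read as luciferase photon flux after d-luciferin addition, treated wells normalized to vehicle wells, single-dose high-throughput screen.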

Regarding `CCC(NC(=O)C(C)NC)C(=O)N1CC(O)CC1Cc1c(-c2[nH]c3cc(F)ccc3c2CC2CC(O)CN2C(=O)C(CC)NC(=O)C(C)NC)[nH]c2cc(F)ccc12` (stereo not drawn), the cell viability in the assay on HCC-1143 amounted to 83.3; in the assay with HCC-1187 it was 41.1; in the assay on MDA-468 it was 96.4; with SUM-149, 39.1.
In the case of `COC1=CC=C(/C(C2=CC=C(OC)C=C2)=C(Cl)/C3=CC=C(OC)C=C3)C=C1` [Chlorotrianisene], the cell viability in the assay on HCC-1143 came out at 90.3; in the assay with HCC-1187, 90.3; in the assay on MDA-468 it was 100; with SUM-149, 124.
Turning to `CC(=O)Nc1ccccc1` [Acetanilide], the cell viability amounted to 80.1 in the assay on HCC-1143, 105 in the assay with HCC-1187, 83.2 in the assay with MDA-468 and 86.7 in the assay with SUM-149.
The like results for `CCC1(O)CC2CN(CCc3c([nH]c4ccccc34)C(C(=O)OC)(c3cc4c(cc3OC)N(C)C3C(O)(C(=O)OC)C(OC(C)=O)C5(CC)C=CCN6CCC43C65)C2)C1.O=S(=O)(O)O` (stereo not drawn) [Vinblastine sulfate] were, in that order, 62.6, 55.5, 116 and 108.
Turning to `CCCCCCOC(=O)N=C(N)c1ccc(NCc2nc3cc(C(=O)N(CCC(=O)OCC)c4ccccn4)ccc3n2C)cc1`, the cell viability in the assay on HCC-1143 is 78.5; with HCC-1187, 109; in the assay with MDA-468 it was 99.4; with SUM-149 it was 87.9.
For the compound `CN(N=O)C(=O)NC1C(O)OC(CO)C(O)C1O` (stereo not drawn) [Streptozocin], the cell viability came out at 78.6 in the assay with HCC-1143, 81.4 with HCC-1187, 91.9 in the assay on MDA-468 and 100 in the assay with SUM-149.
Turning to `CNC(=O)[C@H](Cc1ccccc1)NC(=O)[C@H](CC(C)C)[C@H](CSc1cccs1)C(=O)NO` [Batimastat (BB-94)], the cell viability stood at 93.3 in the assay with HCC-1143, 78.7 in the assay on HCC-1187, 72.4 with MDA-468 and 68.2 in the assay on SUM-149.
The matching figures for `CN(C)c1ccc(C(=C2C=CC(=[N+](C)C)C=C2)c2ccc(N(C)C)cc2)cc1.[Cl-]` [Crystal Violet]: 20.1, 19.7, 29 and 28.9.
As for `C[C@@H]1NC(=O)[C@@H](N)CNC(=O)[C@H](C2CCNC(=N)N2)NC(=O)/C(=C/NC(N)=O)NC(=O)[C@H](CNC(=O)CC(N)CCCN)NC1=O.N=C1NCC[C@H]([C@@H]2NC(=O)/C(=C/NC(N)=O)NC(=O)[C@H](CNC(=O)C[C@@H](N)CCCN)NC(=O)[C@H](CO)NC(=O)[C@@H](N)CNC2=O)N1` [Capreomycin Sulfate], the cell viability came to 67.1 in the assay on HCC-1143, 76.5 in the assay on HCC-1187, 107 in the assay with MDA-468 and 85.6 with SUM-149.
The like results for `Cc1nccn1CC1CCc2c(c3ccccc3n2C)C1=O.Cl.O.O` (stereo not drawn) [Ondansetron hydrochloride dihydrate] were, in that order, 83.1, 74.6, 119 and 129.
The matching figures for `CCCCCCCCCCCCCCCCCCCCCCO` [Docosanol (Abreua)]: 72.6, 85, 99 and 88.9.
The like results for `CC1(C)SC2C(NC(=O)C(N)c3ccccc3)C(=O)N2C1C(=O)[O-].[Na+]` (stereo not drawn) [Ampicillin] were, in that order, 82.3, 91.7, 84.7 and 89.9.
Consider `CN(CC=CC#CC(C)(C)C)Cc1cccc2ccccc12` [Terbinafine], for which the cell viability was found to be 82.3 in the assay on HCC-1143, 103 with HCC-1187, 122 in the assay with MDA-468 and 115 in the assay with SUM-149.
The like results for `COc1nc2ccc(Br)cc2cc1[C@@H](c1ccccc1)[C@@](O)(CCN(C)C)c1cccc2ccccc12` [Bedaquiline fumarate] were, in that order, 107, 97.6, 111 and 80.2.
The like results for `CC1(c2nc3c(C(N)=O)cccc3[nH]2)CCCN1` (stereo not drawn) [ABT-888 (Veliparib)] were, in that order, 84.3, 77.3, 81.3 and 123.
The like results for `CC(C)(Oc1ccc(C2CC2(Cl)Cl)cc1)C(=O)O` (stereo not drawn) [Ciprofibrate] were, in that order, 71.3, 103, 105 and 98.8.
Take `C#C[C@]1(O)CC[C@H]2[C@@H]3CCC4=CC(=O)CC[C@@H]4[C@H]3C(=C)C[C@@]21CC` [Etonogestrel]: the cell viability in the assay with HCC-1143 was 78.1; with HCC-1187, 109; with MDA-468, 129; in the assay with SUM-149, 118.
